From article PMC4336329 (PLoS ONE, 2015) come the findings set out here.

The whole screen tested about 310,000 compounds, of which about 2,200 (0.71%) showed an effect of 50% or more. Effects have a minus sign here. The list shows a part of the results.

This assay deals with human ether-à-go-go-related gene (hERG) potassium channel (human, UniProt Q12809). In words: primary screen, population patch clamp on CHO cells stably expressing hERG.
human ether-à-go-go-related gene (hERG) potassium channel, sequence (Q12809 whole entry, looked up): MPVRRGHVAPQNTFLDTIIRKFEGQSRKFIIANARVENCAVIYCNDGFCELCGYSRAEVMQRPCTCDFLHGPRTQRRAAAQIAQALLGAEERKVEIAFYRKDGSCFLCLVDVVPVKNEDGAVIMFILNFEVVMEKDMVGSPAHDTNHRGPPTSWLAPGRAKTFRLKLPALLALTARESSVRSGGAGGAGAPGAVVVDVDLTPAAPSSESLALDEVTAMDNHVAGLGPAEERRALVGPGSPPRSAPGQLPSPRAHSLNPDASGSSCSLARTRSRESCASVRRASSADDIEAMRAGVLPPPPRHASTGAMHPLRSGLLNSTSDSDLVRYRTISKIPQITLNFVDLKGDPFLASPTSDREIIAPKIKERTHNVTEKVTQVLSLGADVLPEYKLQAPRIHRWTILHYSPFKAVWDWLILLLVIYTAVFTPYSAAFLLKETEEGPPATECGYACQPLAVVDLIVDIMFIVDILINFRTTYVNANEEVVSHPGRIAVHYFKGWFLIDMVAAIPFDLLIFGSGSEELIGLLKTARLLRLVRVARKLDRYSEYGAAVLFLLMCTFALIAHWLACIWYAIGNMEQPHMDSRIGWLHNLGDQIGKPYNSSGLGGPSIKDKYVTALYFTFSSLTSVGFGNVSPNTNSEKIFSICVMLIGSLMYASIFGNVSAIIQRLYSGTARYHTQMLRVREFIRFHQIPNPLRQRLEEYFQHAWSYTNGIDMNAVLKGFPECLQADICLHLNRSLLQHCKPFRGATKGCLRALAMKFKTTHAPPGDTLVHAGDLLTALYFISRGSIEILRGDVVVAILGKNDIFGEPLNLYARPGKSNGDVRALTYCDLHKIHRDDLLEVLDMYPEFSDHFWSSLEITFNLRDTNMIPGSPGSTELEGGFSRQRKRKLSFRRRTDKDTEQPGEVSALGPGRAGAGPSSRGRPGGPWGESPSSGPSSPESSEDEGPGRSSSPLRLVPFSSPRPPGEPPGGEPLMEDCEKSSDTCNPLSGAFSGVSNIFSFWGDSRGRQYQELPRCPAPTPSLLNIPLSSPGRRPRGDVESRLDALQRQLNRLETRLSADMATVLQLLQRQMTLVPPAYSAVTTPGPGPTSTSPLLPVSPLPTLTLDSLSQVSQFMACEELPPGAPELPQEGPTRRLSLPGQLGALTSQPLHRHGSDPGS
With `CCOC(=O)C(O)(c1ccc(N(C)C(=O)COc2ccccc2)cc1)C(F)(F)F` (stereo not drawn), the “hERG current change (%, negative = inhibition) at 1uM” value is -11.9%.
`CN(C)CCCN=Cc1c(O)n(Cc2ccco2)c(=O)[nH]c1=O`: the “hERG current change (%, negative = inhibition) at 1uM” value turned out to be 10.6%.
The value for `CCOC(=O)C1(Cc2ccccc2)CCCN(CCCn2cccn2)C1` (stereo not drawn) was 3.88%; that for `O=C(CN(C(=O)c1csnn1)c1ccc(F)cc1)NCCc1ccccc1` was 14.1%; that for `Nc1nc2n(n1)C(c1c(F)cccc1Cl)CC(c1ccc(F)cc1)N2` (stereo not drawn) was -37.2%.
The value for `CCOCCCNC(=O)c1ccc2c(c1)OCO2` was 2.77%.
The figure for `Cc1cc(C)cc(C(=O)n2cnnc2N)c1` is 11.3%; for `COc1cccc(-c2nnc(N)o2)c1` it is 7.74%; for `CCS(=O)(=O)N1CCC(C(=O)NCc2ccc(F)cc2)CC1` it is 12.2%.
Take `COc1ccc(C(CC(=O)N2CCCC2)c2c(O)cc(OC)cc2OC)cc1` (stereo not drawn): the “hERG current change (%, negative = inhibition) at 1uM” value is on record as 11.1%.
The value for `COc1ccc(NC(=O)c2ccc(COc3ccccc3)o2)c(OC)c1` was 10.8%; that for `O=C(Nc1nonc1NC(=O)C1CCCCC1)C1CCCCC1` was 12.8%; that for `COc1ccc(-c2nnn(CC(=O)N(C3CCCCC3)C(C)C(=O)NC3CCCC3)n2)cc1OC` (stereo not drawn) was -6.3%.
Turning to `O=C(NC1CCCCCCC1)c1ccc2c(c1)N(Cc1ccc(F)cc1)C(=O)CS2=O` (stereo not drawn), the “hERG current change (%, negative = inhibition) at 1uM” value is listed as -2.87%.
The figure for `Cc1ccc(S(=O)(=O)NNC(=S)NCC2CCCO2)cc1` (stereo not drawn) is 11.6%; for `C=CCn1c(-c2ccccc2)n[nH]c1=S` it is 8.84%.
The figure for `COc1ccc(CCNC(=O)c2cccnc2)cc1` is 6.01%.
The figure for `C[C@@]12C(=O)N(Cc3ccccc3)CC(=O)N1[C@H]1c3cc(Cl)ccc3OC[C@@H]1[C@@H]2c1ccccc1` is 13.9%; for `COc1ccc(/C(C#N)=C/c2c(-c3ccc(Cl)cc3)nc3c(C)cccn23)cc1` it is 15.7%.
With `CCC(Sc1ccccn1)C(=O)Nc1nnc(C)s1` (stereo not drawn), the “hERG current change (%, negative = inhibition) at 1uM” value was 12.1%.
The figure for `COc1cc(CNc2ccccc2SC)cc(OC)c1OC` is 12.8%.
The figure for `CC(C)C(=O)NC(=O)[C@@H]1CCCN1C(=O)/C=C/c1ccccc1` is 12%.
The value for `Cc1ccc(NS(=O)(=O)c2cc(NC(=O)c3ccc4c(c3)NC(=O)CS4)ccc2Cl)c(C)c1` was 0.525%; that for `N#C/C(=C/c1ccc(N2CCOCC2)o1)C(=O)NC1CCCCC1` was 5.09%; that for `CC1C(=O)NC(=O)C1c1ccccc1` (stereo not drawn) was 13.3%.
In the case of `Cn1c(NCc2cc(Br)ccc2O)nc2ccccc21`, the “hERG current change (%, negative = inhibition) at 1uM” value was found to be 5.71%.
The figure for `O=C(Nc1ccccc1)NC1(C(=O)NCCCN2CCOCC2)CCCCC1` is 5.99%; for `O=c1cc(O)c2ccccc2n1Cc1ccccc1` it is 14.7%; for `CC1CN(C(=O)c2cc3c(=O)n4ccccc4nc3s2)CC(C)O1` (stereo not drawn) it is -0.692%.
The figure for `Cc1ccc(CN2C(=O)C(CC(C)C)Nc3ncnc(N4CCN(c5ccccn5)CC4)c32)cc1.O=C(O)C(F)(F)F` (stereo not drawn) is -27.5%; for `CC(C)OCC1CC(CC(=O)Nc2ccc([N+](=O)[O-])cc2)C(=O)O1` (stereo not drawn) it is 5.8%; for `CCOC(=O)C(NC(=O)c1cccnc1)(Nc1cccc(C)n1)C(F)(F)F` (stereo not drawn) it is 7.41%.
The value for `O=C(NC1CC1)c1cccc(Br)c1` was 14.2%.
Take `Cc1cccc(NC(=S)NCCc2ccccn2)c1`: the “hERG current change (%, negative = inhibition) at 1uM” value stood at 12.5%.
For `CCNC(=S)N(CCc1c(C)[nH]c2ccc(Cl)cc12)Cc1cccnc1`, the “hERG current change (%, negative = inhibition) at 1uM” value is -1.95%.
The figure for `COc1cccc(NC(=S)N2CCC(N(C)CC3CCCO3)CC2)c1` (stereo not drawn) is 1.81%.
The value for `CCCCN1C(=O)CC(N2CCOCC2)C1=O` (stereo not drawn) was 10.8%; that for `Cc1[nH]c(C(=O)N/N=C/c2ccc(N(C)C)cc2)c(C)c1C(=O)N/N=C/c1ccc(N(C)C)cc1` was 9.04%; that for `COc1ccc(C(=O)Nc2cc(OC)c(NC(=O)c3ccco3)cc2OC)cc1` was 4.64%.
The value for `COc1cc2ccccc2cc1C(=O)Nc1ccc(C)cn1` was 8.74%.
For `CCOC(=O)c1ccc(N/C(=N\S(=O)(=O)c2ccccc2C)c2ccccc2)cc1`, the “hERG current change (%, negative = inhibition) at 1uM” value is recorded as 9.53%.
The value for `CC(=O)N1CCN(CC(O)COc2ccc(S(=O)(=O)N3CCOCC3)cc2)CC1.Cl` (stereo not drawn) was 14.1%; that for `CCOC(=O)c1c(C)n(-c2ccc(OC)cc2)c2ccc(O)c(CN(C)C)c12.Cl` was 1.29%; that for `O=S(=O)(Nn1cnnc1)c1ccc2ccccc2c1` was 20.5%.
The figure for `Cc1cc2cc(CNC(=O)COc3ccccc3)ccc2n1C` is 5.6%.
